{"source": "the RNAGym collection of RNA variant scans (doi:10.7554/elife.90254)", "parents": {"B1": {"name": "LINE1-mini (parent)", "chain": "GGCAGAGCUCAACACAGCGUGGCAAAGUGGCUGUGGCUAGACUGCC"}}, "note": "Read counts are not given, so values of variants with three or more changes are uncertain."}
{"variants_of": "B1", "assay": "self-cleavage, relative activity (ratio to wild type); higher = more cleavage; in vitro, sequencing; the parent is a self-cleaving ribozyme"}
{"variant": "C18A U32G G44A", "self-cleavage": 0.01}
{"variant": "C18A U32G G44C", "self-cleavage": 0.03}
{"variant": "C18A U32A C37U", "self-cleavage": 0.01}
{"variant": "C18G A26G C42G", "self-cleavage": 0.01}
{"variant": "C18G C31A G40C", "self-cleavage": 0.06}
{"variant": "G17U A26G C37A", "self-cleavage": 0.15}
{"variant": "G17U G21A C23A", "self-cleavage": 0.13}
{"variant": "G17U G19C U38C", "self-cleavage": 0.18}
{"variant": "G17U G21A A26U G30C", "self-cleavage": 0.08}
{"variant": "C18A G22U C37U C45A", "self-cleavage": 0.07}
{"variant": "C18A G19U G27U", "self-cleavage": 1.39}
{"variant": "C18A G33U G40C", "self-cleavage": 0.02}
{"variant": "C18A G35C C46G", "self-cleavage": 0.04}
{"variant": "C18G G21U G27C", "self-cleavage": 2.21}
{"variant": "C18G A25U G36A", "self-cleavage": 0.08}
{"variant": "C18G A25U G36U", "self-cleavage": 0.01}
{"variant": "C18G A25C U32G U34C", "self-cleavage": 0.03}
{"variant": "G17U U32G G36U C46U", "self-cleavage": 0.03}
{"variant": "G17U G27U C37A C45G C46A", "self-cleavage": 0.01}
{"variant": "C18A G19A G36U C46U", "self-cleavage": 0.04}
{"variant": "C18A G19U A25U A41U", "self-cleavage": 0.36}
{"variant": "C18A U28A C31G", "self-cleavage": 0.12}
{"variant": "C18A U32A C42A C46A", "self-cleavage": 0.03}
{"variant": "G17U G19A U28G C45U", "self-cleavage": 0.25}
{"variant": "C18G C23U A24G G27C A41U G44A", "self-cleavage": 0.1}
{"variant": "C18A U32G G33U G44C", "self-cleavage": 0.04}
{"variant": "C18A U20C C42A", "self-cleavage": 0.05}
{"variant": "C18G A26G G30U U32A", "self-cleavage": 0.06}
{"variant": "G17U C37U A39U C42G G44A", "self-cleavage": 0.07}
{"variant": "C18A G21U G33C C42G", "self-cleavage": 0}
{"variant": "G17U G21U U28C A41G", "self-cleavage": 0}
{"variant": "C18G C23G A39G", "self-cleavage": 0.05}
{"variant": "C18A G21C G44C", "self-cleavage": 0.04}
{"variant": "C18A U34A A39G", "self-cleavage": 0.03}
{"variant": "C18A G27U C37A", "self-cleavage": 0.09}
{"variant": "G17U C37U C42A", "self-cleavage": 0.01}
{"variant": "C18G C37A A39U", "self-cleavage": 0.05}
{"variant": "C18A U20G G30A U32A", "self-cleavage": 0.05}
{"variant": "C18A G27A G29U G36U", "self-cleavage": 0.05}
{"variant": "C18A C42G C46A", "self-cleavage": 0.03}
{"variant": "G17U C45U C46G", "self-cleavage": 0.04}
{"variant": "C18G A41C U43G G44U", "self-cleavage": 0}
{"variant": "G17U G30U A41U", "self-cleavage": 0.08}
{"variant": "C18A G29U G36A", "self-cleavage": 0.1}
{"variant": "C18A A25U G29U", "self-cleavage": 2.32}
{"variant": "G17U C18U C31A U38A", "self-cleavage": 0.56}
{"variant": "C18G C31G U34G", "self-cleavage": 0.02}
{"variant": "G17U G22U U28A", "self-cleavage": 1.09}
{"variant": "G17U C23A G27C", "self-cleavage": 1.52}
{"variant": "G17U G19C G36C U43C", "self-cleavage": 0.03}
{"variant": "G17U G40A C45U", "self-cleavage": 0.03}
{"variant": "G17U G29U G30A", "self-cleavage": 0.41}
{"variant": "G17U C42U U43A", "self-cleavage": 0.03}
{"variant": "G17U G40C C46A", "self-cleavage": 0.05}
{"variant": "G17U G36A C37U A39G", "self-cleavage": 0.09}
{"variant": "C18G G19U G33U", "self-cleavage": 0.01}
{"variant": "G17U U34C A39G", "self-cleavage": 0.03}
{"variant": "C18A A26G U28C G33A", "self-cleavage": 0.2}
{"variant": "C18A G35C G44U", "self-cleavage": 0.03}
{"variant": "G17U G36A C37U G40A", "self-cleavage": 0.06}
{"variant": "C18A G19C A26G G35C A41C", "self-cleavage": 0.01}
{"variant": "G17U A26C G27U A41U", "self-cleavage": 0.05}
{"variant": "G17U G30U C37U", "self-cleavage": 0.06}
{"variant": "G17U G22A A41U C46A", "self-cleavage": 0.09}
{"variant": "C18A C23U C37G", "self-cleavage": 0.05}
{"variant": "C18A G19C U43G", "self-cleavage": 0.02}
{"variant": "C18G C23A U32A", "self-cleavage": 0.04}
{"variant": "C18G C42A U43C", "self-cleavage": 0.16}
{"variant": "G17U G27U C46U", "self-cleavage": 0.53}
{"variant": "G17U G30U C42G", "self-cleavage": 0.03}
{"variant": "C18A G27A U43C", "self-cleavage": 0.07}
{"variant": "C18A C42A U43C C46G", "self-cleavage": 0.08}
{"variant": "G17U G22U U34G", "self-cleavage": 0.04}
{"variant": "C18A A39C C45U", "self-cleavage": 0.05}
{"variant": "G17U U20A C31A", "self-cleavage": 1.22}
{"variant": "C18A G36U A41G", "self-cleavage": 0.04}
{"variant": "G17U C31U A39U", "self-cleavage": 0.01}
{"variant": "C18A G19C G29A G40U", "self-cleavage": 0.11}
{"variant": "C18A U20G G33U", "self-cleavage": 0.03}
{"variant": "C18A G19U G36C", "self-cleavage": 0.05}
{"variant": "G17U A39U C42A U43C", "self-cleavage": 0.02}
{"variant": "G17U G35C A41G", "self-cleavage": 0.13}
{"variant": "G17U G27C G29A", "self-cleavage": 0.15}
